# According to PubChem BioAssay AID1347073 (National Center for Advancing Translational Sciences (NCATS), 2019):
# The campaign covered roughly 45,000 compounds. About 200 (0.44%) were called active. About 7% were inconclusive and are not listed. Calls follow the shape of the dose curve; as a rule, active = well fitted activation curve with a large enough effect; inconclusive = small, poorly fitted or top-dose-only effect; inactive = no such curve, though single readings can be large or run the other way. Some of the results follow.
# Experiment: qHTS of TDP-43 Inhibitors: NCGC Sytravon Library Screen; also: 0% is about no effect; nearly all actives have a fitted effect of over 55% in size
# Details: yeast TDP-43 toxicity rescue, BacTiter-Glo growth, 24 h; series mostly up to 46.1 µM; growth rescue (activation): at the top concentration
# In short: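 TDP-43-expressing yeast, pregrown in raffinose, seeded at OD600 0.02 in galactose medium with compound for 24 hr at 30 deg C. Growth read by BacTiter-Glo luminescence, so rescue of toxicity appears as activation.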
row,Structure (SMILES),growth rescue (activation)
1,CC(C)N(Cc1cnn(C)c1)Cc1nc(Cc2ccccc2Cl)no1,inactive: 0.151%
2,CCOC(=O)CNS(=O)(=O)c1cc(-c2nn(C)c(=O)c3ccccc23)ccc1C,inactive: 29.1%
3,Cc1ccc(S(=O)(=O)N2CCN(C(=O)C(C)Cn3nc(C)c(C)c3C)CC2)cc1C (stereo not given),inactive: 8.08%
4,Clc1ccc(CN2C3=NCCCN3c3ccccc32)cc1Cl,inactive: 12.9%
5,CCOc1ccc(N=C2C(=O)Nc3ccc(C)c(Br)c32)cc1,inactive: 4.29%
6,Cn1c(=N)n(CC(=O)c2ccccc2)c2ccccc21,inactive: -2.92%
7,Cn1nc(C(=O)Nc2nc3ccccc3[nH]2)ccc1=O,inactive: -5.35%
8,Cc1cccc(NC(=O)C2(C)CC3c4ccccc4C2c2ccccc23)c1 (stereo not given),inactive: 18.2%
9,Cc1c(NC(=O)CSc2ccc(Cl)cc2)c(=O)n(-c2ccccc2)n1C,inactive: -2.13%
10,O=C(NNC(=O)C1CC2CCC1C2)c1sc2ccccc2c1Cl (stereo not given),inactive: 0.231%
11,COCC(=O)N(Cc1cc2cc(OC)ccc2[nH]c1=O)c1ccccc1OC,inactive: -1.18%
12,CN1c2ccccc2Sc2cc(N)ccc21,inactive: -2.88%
13,CN(CC(=O)N1CCOCC1)C(=O)CSc1nc2ccccc2s1,inactive: 0.795%
14,CC(=O)Nc1nc(-c2ccccc2)nc(C)c1C(C)=O,inactive: 13.8%
15,CCn1cc(C(=S)N2CCC(C(N)=O)CC2)c2ccccc21,inactive: 1.29%
16,Cc1ccnc(NC(=O)Cc2ccc(F)cc2)n1,inactive: 0.0101%
17,Cc1nc(S(=O)(=O)Cc2ccccc2)nc2c1CCC2,inactive: 8.04%
18,CN(C)CCP(=O)(c1ccccc1)c1ccccc1,inactive: 1.47%
19,COc1cccc(-c2nc(-c3ccccc3)nc(N3CCN(C)CC3)c2C#N)c1,inactive: -4.02%
20,O=C(CNC(=O)c1ccc(-c2ccccc2)cc1)OCc1c(Cl)cccc1Cl,inactive: 2.62%
21,O=[N+]([O-])c1ccc(S(=O)(=O)N2CCSC2c2ccco2)cc1 (stereo not given),inactive: 3.64%
22,Cc1ccc2c(COC(=O)c3ccc(C)c(C)c3)cc(=O)oc2c1,inactive: -1.88%
23,COc1cccc(-c2cnc3c(NC(C)=O)cc(-c4ccc(S(C)(=O)=O)cc4)cn23)c1,inactive: 4.97%
24,CCCCOc1cccc(C(=O)Nc2ccc(S(=O)(=O)Nc3cc(C)on3)cc2)c1,inactive: 14.8%
25,O=C(c1ccc2c(c1)OCO2)C1CCCN(C(=O)C2CCOCC2)C1 (stereo not given),inactive: 1.29%
26,O=C(OCC(=O)C12CC3CC(CC(C3)C1)C2)c1ccccc1O,inactive: -13.7%
27,CCc1cccc(C)c1NC(=O)c1cc(-c2ccncc2)nc2ccccc12,inactive: -5.18%

row,Structure (SMILES),growth rescue (activation)
1,CCN(CCO)c1ccc(Nc2cc(-c3ccc(-c4ccccc4)cc3)ncn2)cc1,inactive: 27.4%
2,NC(=O)NCC(=O)N1CCC(C(O)(c2ccccc2)c2ccccc2)CC1,inactive: 21.3%
3,CCc1c(C(=O)NCCc2cccc(C)c2)[nH]c(C)c1C(C)=O,inactive: 25.9%
4,CCC(=O)NC(Nc1ccccn1)(C(=O)OC)C(F)(F)F (stereo not given),inactive: 11.8%
5,Nc1cc(C(=O)N/N=C/c2cccc([N+](=O)[O-])c2)n[nH]c1=O,inactive: 13.6%
6,Cc1ccc(S(=O)(=O)Nc2ccncc2)c(C)c1N(C)S(=O)(=O)c1ccc(F)cc1,inactive: 20.1%
7,COC(=O)[C@H](CC(C)C)NC(=O)CCc1nnc(COc2ccccc2)o1,inactive: -13.2%
8,O=C(Nc1ccccc1)c1ccc(-c2ccc([N+](=O)[O-])cc2)o1,inactive: 3.36%
9,CCCCN(C(=O)C1CCCC1)c1c(N)n(Cc2ccccc2)c(=O)[nH]c1=O,inactive: -6.83%
10,Cc1ccccc1N(C(=O)CNC(=O)c1ccco1)C(C(=O)NC1CCCC1)c1ccncc1 (stereo not given),inactive: 0.587%
11,COC(=O)C1C(c2ccc(OC)cc2)NC(=O)NC1(O)C(F)(F)Cl (stereo not given),inactive: -1.03%
12,CCN(CC(=O)Nc1ccccc1C(F)(F)F)C(=O)Cc1ccccc1,inactive: 17.9%
13,Cc1cc(C)n2c(SCC(=O)Nc3cccc(S(N)(=O)=O)c3)nnc2n1,inactive: -8.56%
14,CCNC(=O)CSc1nnc(-c2cccs2)o1,inactive: 10.1%
15,COc1ccccc1C(=O)NC(=S)Nc1ccc2[nH]c(=O)[nH]c2c1,inactive: 8.32%
16,COc1cc(/C=C(\C#N)C(=O)NCC2CCCO2)cc(OC)c1OC (stereo not given),inactive: 22.8%
17,O=C1NCC(c2ccccc2)C1C(=O)N/N=C\c1ccc(-c2ccc(Cl)c(Cl)c2)o1 (stereo not given),inactive: 30.3%
18,Cc1cccc(NC(=O)Cn2cc(C(=O)C3CC3)c3ccccc32)c1C,inactive: 19.2%
19,O=C(c1ccc(C(F)(F)F)cc1)C1CCCN(C(=O)CCc2cnccn2)C1 (stereo not given),inactive: 10.8%
20,CCCNC(=O)C1(C)CCCN(C(=O)c2cccc(C#N)c2)C1 (stereo not given),inactive: 1.45%
21,COc1ccccc1CNC(=O)CN1CCN(S(=O)(=O)c2cccs2)CC1,inactive: -0.0566%
22,CCc1c(C)sc(NC(=S)Nc2nc(C)cc(C)n2)c1C(=O)OC,inactive: 27.9%
23,O=C(C[n+]1ccc(C(=O)NCc2ccccc2)cc1)c1ccc(OC(F)F)cc1,inactive: 19.3%
24,O=C(O)CN1C(=O)/C(=C\c2cn(CC(=O)N3CCOCC3)c3ccccc23)SC1=S,inactive: 10%
25,COCC(C)n1c(C)cc(C(=O)CSc2nnnn2-c2ccc(O)cc2)c1C (stereo not given),inactive: -1.07%
26,O=C(Nc1cccc(Cl)c1)c1cccnn1,inactive: 1.29%
27,COC(=O)c1sccc1NC(=O)COc1ccccc1Cl,inactive: 14.4%

row,Structure (SMILES),growth rescue (activation)
1,CCOc1ccccc1N(CC(=O)Nc1ccccc1C(=O)N1CCCC1)S(C)(=O)=O,inactive: -7.28%
2,COc1ccc(N2CCN(C(=O)C3CCN(S(=O)(=O)c4ccccc4)CC3)CC2)cc1,inactive: 8.01%
3,CCOC(=O)C1(CCCc2ccccc2)CCN(C(=O)c2cnn(CC)c2)CC1,inactive: 13.9%
4,CC1CCc2c(sc(NC(=O)C3c4ccccc4Oc4ccccc43)c2C(N)=O)C1 (stereo not given),inactive: 8.78%
5,CCc1ccc(OCC(=O)N(Cc2ccc(C)o2)C2CCS(=O)(=O)C2)cc1 (stereo not given),inactive: 4.46%
6,CCc1ccccc1NC(=O)N1CCc2c([nH]c3ccccc23)C1c1ccc(C)cc1 (stereo not given),inactive: -13.2%
7,Fc1ccc2c(c1)C(c1ccncc1)=NNC(c1ccccc1)=N2,inactive: 7.48%
8,O=C(COc1ccc(Br)cc1CO)N1CCCc2ccccc21,inactive: 18%
9,COc1ccc(C(=O)/C=C/Nc2ccc(S(N)(=O)=O)cc2)cc1OC,inactive: -29.2%
10,O=C(NNc1cc(N2CCOCC2)nc(N2CCOCC2)n1)c1ccc([N+](=O)[O-])cc1,inactive: 2.06%
11,COC(=O)c1ccccc1NC(=O)CN(C)Cc1ccccc1,inactive: 8.58%
12,Cc1cccc(N(CC(O)CN2CCCC2)S(=O)(=O)c2ccccc2)c1 (stereo not given),inactive: 6.22%
13,O=C(O)CCC(=O)Nc1cccc(-c2csc(-c3ccccc3)n2)c1,inactive: 0.673%
14,O=C(c1cccc(NS(=O)(=O)c2ccc(F)c(F)c2)c1)N1CCN(C(c2ccccc2)c2ccccc2)CC1,inactive: 5.36%
15,CC1(C)CC(=O)C(C2C3=C(CC(C)(C)CC3=O)Oc3ccc4ccccc4c32)C(=O)C1 (stereo not given),inactive: -5.91%
16,CC(C)Cc1nnc(NC(=O)CCC(=O)N2CCN(S(=O)(=O)c3ccccc3)CC2)s1,inactive: -25.6%
17,COc1ccc(CCNC(=O)CSCc2c(F)cccc2Cl)cc1OC,inactive: 27.4%
18,O=C(COC(=O)CC1CC2CCC1C2)Nc1c(F)cccc1F (stereo not given),inactive: -36.9%
19,CN(C)S(=O)(=O)c1cccc(NC(=O)CN(CCO)CC(=O)Nc2cccc(S(=O)(=O)N(C)C)c2)c1,inactive: 11.6%
20,COc1ccc(C(NC(=O)C2CCN(Cc3ccc(Oc4ccccc4)cc3)CC2)c2ccccn2)cc1 (stereo not given),inactive: 10.2%
21,CCN(CC)c1ccc(/C=C2\C(=O)c3ccc(C(=O)O)cc3C2=O)cc1,inactive: -0.239%
22,CCN(c1ccccc1)S(=O)(=O)c1ccc(Cl)c(C(=O)O)c1,inactive: 9.87%
23,CC(C)c1ccc(N(C(=O)c2snc(C(N)=O)c2N)C(C(=O)NC2CCCC2)c2ccncc2)cc1 (stereo not given),inactive: 10.3%
24,CC(=O)Nc1ccc(/C=C(\C#N)S(=O)(=O)c2ccc(C)cc2)cc1,inactive: 5.68%
25,C/C(=N\NC(=O)c1ccc(F)cc1)c1ccc(N2CCOCC2)cc1,inactive: 12.1%
26,Cc1[nH]c2ccc(-c3n[nH]c(=S)n3-c3ccccc3)cc2c1C,inactive: -7.58%
27,CC(C)c1ccc(NC2=NCC(=O)N2Cc2cccs2)cc1,inactive: -10.8%

row,Structure (SMILES),growth rescue (activation)
1,COC(=O)c1ccccc1NC(=O)C1CCN(C(=O)c2ccc(OC)cc2)CC1,inactive: 15.1%
2,CC(=O)Nc1ccc(CN2CCc3c([nH]c4ccccc34)C2c2ccccn2)cc1 (stereo not given),inactive: -2.28%
3,Cc1cccc(NC(=S)NC2CC3CCCC(C2)N3Cc2ccccc2)c1C (stereo not given),inactive: 6.43%
4,O=C(Nc1cccc(O)c1)C1CC(c2ccc(Cl)cc2)=NO1 (stereo not given),inactive: 7.82%
5,COc1ccc(Cl)cc1S(=O)(=O)N1CCC(C(=O)NCC2CCCO2)CC1 (stereo not given),inactive: -1.41%
6,Cc1ccc(P(=O)(CSC(=N)N)c2ccc(C)cc2)cc1,inactive: 2.81%
7,CN1/C(=C\C(=O)C[n+]2cccc(C(N)=O)c2)C(C)(C)c2ccccc21,inactive: 9.56%
8,Cc1ccc(NC(=O)c2ccc(NC(=O)c3ccccc3)cc2)cc1C,inactive: 8.48%
9,Cn1c(N)c(C(=O)COC(=O)CCCOc2ccc(Cl)cc2Cl)c(=O)n(C)c1=O,inactive: 15.2%
10,COc1ccc(OC)c(S(=O)(=O)NCC2CCCO2)c1 (stereo not given),inactive: 2.45%
11,O=C(O)c1ccc(NS(=O)(=O)c2ccc(C(=O)Nc3ccccc3)cc2)cc1,inactive: -2.75%
12,Cc1nc(N2CCN(C)CC2)c2c(C)c(C(=O)Nc3ccc(F)cc3)sc2n1,inactive: 5.52%
13,NS(=O)(=O)c1cccc(NC(=O)c2ccc(S(=O)(=O)N3CCCCCC3)cc2)c1,inactive: 32.2%
14,CCOC(=O)CN1C(=O)S/C(=C/c2ccc(OC)c([N+](=O)[O-])c2)C1=O,inactive: -5.88%
15,CCCNC(=O)C1(C)CCN(C(=O)c2cc(F)ccc2C)C1 (stereo not given),inactive: 2.84%
16,Cc1cc(C(F)(F)F)nc(-n2cc(-c3cccc(N)c3)nn2)n1,inactive: 10.3%
17,CN(c1ccc(C(=O)Nc2ccccn2)cc1)S(=O)(=O)c1ccccc1,inactive: 12.3%
18,CCOC(=O)C1=C(O)C(=O)N(Cc2ccccc2)CC1,inactive: 10.1%
19,O=C(OCC(=O)N1CCc2ccccc21)c1ccccc1,inactive: 22.7%
20,CC(C)CC1=NC(C(F)(F)F)(C(F)(F)F)c2c(n(CC(C)C)c(=O)[nH]c2=O)N1,inactive: 0.0292%
21,C=CCNC(=O)N1CCCC(C(=O)c2cccc(Cl)c2)C1 (stereo not given),inactive: 9.82%
22,CCN(CC)Cc1c(O)c(Cl)cc2c(C)cc(=O)oc12,inactive: -0.132%
23,CCn1c(C(=O)NCc2cc(Br)ccc2OC)cc2oc3ccccc3c21,inactive: 9.96%
24,O=c1[nH]c(/C=C\c2ccc(O)c(O)c2)nc(O)c1[N+](=O)[O-],inactive: -1.7%
